In PMC6919601, “Identification of Plasmodium dipeptidyl aminopeptidase allosteric inhibitors by high throughput screening” (PLoS ONE, 2019):
Screen size: about 110,000 compounds; about 230 (0.21%) showed an effect of 50% or more. Some of the results follow.

The molecules below were run against DPAP1 (Plasmodium falciparum, UniProt Q8IIJ9) (assay: primary screen, percent inhibition; read by cleavage of a fluorogenic dipeptide substrate; higher = more effect of the substance).
Parameters: species or system P. falciparum D10 trophozoite lysates; single well
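Further: 30 min substrate incubation versus DMSO and 10 µM JCP410 controls.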

DPAP1, sequence (Q8IIJ9 whole entry, looked up): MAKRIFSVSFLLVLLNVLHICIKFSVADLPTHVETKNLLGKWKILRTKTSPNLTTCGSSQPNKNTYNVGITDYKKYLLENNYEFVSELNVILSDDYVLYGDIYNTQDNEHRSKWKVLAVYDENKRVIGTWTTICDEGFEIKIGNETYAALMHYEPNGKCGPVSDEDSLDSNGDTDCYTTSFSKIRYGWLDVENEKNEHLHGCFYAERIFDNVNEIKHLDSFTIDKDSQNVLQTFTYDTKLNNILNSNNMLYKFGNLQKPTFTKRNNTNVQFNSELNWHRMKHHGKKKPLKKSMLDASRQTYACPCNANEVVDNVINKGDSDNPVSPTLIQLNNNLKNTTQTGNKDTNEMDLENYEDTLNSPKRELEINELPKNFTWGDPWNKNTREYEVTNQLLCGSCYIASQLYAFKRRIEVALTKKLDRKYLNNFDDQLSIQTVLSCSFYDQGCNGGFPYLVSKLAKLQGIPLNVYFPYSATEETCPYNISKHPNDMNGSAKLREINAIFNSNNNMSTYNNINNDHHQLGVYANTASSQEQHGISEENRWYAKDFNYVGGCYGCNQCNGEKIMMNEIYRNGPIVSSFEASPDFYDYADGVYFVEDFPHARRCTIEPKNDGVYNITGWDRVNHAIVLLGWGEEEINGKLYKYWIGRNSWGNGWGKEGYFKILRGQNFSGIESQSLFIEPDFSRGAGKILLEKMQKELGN

Compound	% Inhibition @ 10 uM [%]
CCCOc1ccc(C(=O)CCNC(C(=O)O)C(C)C)cc1 (centres unmarked)	2.8
Cn1nnnc1SCCCNCc1ccc(OCc2ccccc2Cl)cc1	-1.11
O=c1c2c3c(sc2[nH]c(=S)n1C1CCCCC1)CCCC3	9.26
O=C(CN1C(=O)c2ccccc2C1=O)N1CCN(C(c2ccccc2)c2ccc(Cl)cc2)CC1 (centres unmarked)	-0.357
Cc1coc2c1c(C)cc1oc(=O)c(CC(=O)NCc3ccc(F)cc3)c(C)c12	-0.808
Cc1scc(CN2CCC3(CC2)OCCO3)c1C	-6.05
O=C(Nc1ccc(CN2CCCCC2)cc1)c1cc2nc(C(F)F)cc(C(F)F)n2n1	5.61
CCn1c(C(=O)N2CCC(C(=O)NCCc3c[nH]c4ccccc34)CC2)cc2sccc21	3.4
CCCCOc1ccc(C(C)(CC(=O)O)C(=O)O)cc1 (centres unmarked)	-1.68
COc1ccc(-c2nc(N)n(S(=O)(=O)c3ccc(Cl)cc3)n2)cc1	-5.29
CN1CCCC1CCNS(=O)(=O)c1ccc(Br)cc1 (centres unmarked)	-0.48
CCCc1[nH]nc2c1C(c1ccc3c(c1)OCO3)C(C#N)=C(N)O2 (centres unmarked)	2.36
COC(=O)c1sccc1NC(=O)c1sc2nc3n(c(=O)c2c1C)CCCCC3	3.44
CCn1ncc(Cl)c1C(=O)Nc1cc2oc3ccccc3c2cc1OC	-1.37
COc1ccc(CN2CC(C)OC(C)C2)cc1 (centres unmarked)	-1.22
Cc1nc2sccn2c(=O)c1S(=O)(=O)NCc1ccncc1	3
CCCNC(=O)c1ccc2nc(N3CCCCC3)sc2c1	-0.85
CCOC(=O)N1CCN(c2c(NCc3cccnc3)c(=O)c2=O)CC1	5.09
CCOc1ccc(CCN2CN(CC)CNC2=S)cc1OCC	1.32
O=C(/C=C/c1ccccc1)Nc1ccccc1C(=O)O	-0.415
CCCN(CCC)C(=O)c1cnn(-c2ccc(F)cc2)c1-n1cccc1	-5.18
COc1ccccc1Oc1coc2cc(O)ccc2c1=O	-2.91
COc1cc(C(c2c(C)n(C)n(-c3ccccc3)c2=O)c2c(C)n(C)n(-c3ccccc3)c2=O)ccc1O	-1.05
O=C(CCCn1sc2ccccc2c1=O)NCCC1=CCCCC1	-2.84
CCCCCCOc1ccc(N2C(=O)CC(N3CCOCC3)C2=O)cc1 (centres unmarked)	2.08

Compound	% Inhibition @ 10 uM [%]
CCCN(Cc1cc2cccc(C)c2nc1O)S(C)(=O)=O	5.7
Cc1cccc(CCNC(=O)c2sc3nc4n(c(=O)c3c2C)CCCCC4)c1	-0.788
CCOc1ccc(C(=O)Nc2cccc3cccnc23)cc1	1.61
Cc1nn(-c2ccccc2)c2c1C(c1ccc(OCc3ccccc3)cc1)SCC(=O)N2 (centres unmarked)	-3.63
COc1ccc(C(=O)Nc2nc(C)c(C)s2)c(OC)c1	-0.999
COC(=O)C1=CN(C(C)C)C=C(C(=O)OC)C1c1ccc(C(F)(F)F)cc1	-3.23
CC(=O)c1sc(N2C(=O)C(O)=C(C(=O)c3cc4ccccc4o3)C2c2ccc(F)cc2)nc1C (centres unmarked)	-1.82
OCc1nc2cc3[nH]c(O)nc3cc2[nH]1	0.0538
CC1CC(C)(C)NC(=S)N1CCC(=O)NCc1ccco1 (centres unmarked)	7.39
CCOc1c([N+](=O)[O-])cc2c(C)c(C(=O)O)oc2c1OCC	4.54
Cc1ccc2oc(=O)c3cnn(CC(=O)NC4CCCCC4)c3c2c1	-3.45
Cn1nc(C(=O)NCC2CCCO2)c2c1-c1ccccc1S(=O)(=O)C2 (centres unmarked)	-0.788
CC(C)CCn1c(=O)c2ccccc2n2c(CCC(=O)NCCN3CCCC3)nnc12	8.05
CCOc1cccc(OCC)c2c(C)[n+](-c3ccc(OC)cc3)c(C)c1-2	-3.53
CC1CC(C)CN(C(=O)C2CCN(S(=O)(=O)c3cccs3)CC2)C1 (centres unmarked)	6.29
COc1ccccc1N1CCN(CC(O)COC(C)C)CC1 (centres unmarked)	-13.3
O=C(Nc1ccc(S(=O)(=O)N2CCCCCC2)cc1)c1ccccc1	2.55
Cc1ccc2[nH]c(/C(C#N)=C/c3cccc4ccccc34)nc2c1	1.76
CCCNC(=O)C1CC(c2cc(OC)ccc2OC)=NO1 (centres unmarked)	-5.79
CC1=CC2=NC(=O)/C(=C\c3cccn3CCOc3ccc(Cl)c(C)c3)C(=N)N2O1	-3.23
Cc1ccc(/C=C2/N=C(c3cccc(Cl)c3Cl)OC2=O)o1	-4.57
N#CC1=C2SCN(Cc3ccccc3)CN2C(=O)CC1c1cccc2ccccc12 (centres unmarked)	51.5
CCCCSc1snc(O)c1C#N	-1.94
N#C/C(=C\c1ccccc1Cl)c1nc(-c2cc3ccccc3oc2=O)cs1	3.06
CC(=O)N1C(=N)S/C(=C/c2cc3ccc(C)cc3nc2O)C1=O	0.275
